Source: US20170029494A1, “Antigen Binding Constructs” (Glaxo Group Limited, priority 2011, published 2017)

T1: VEGF165 (Homo sapiens, UniProt P15692)
T1 sequence (P15692 27-191 isoform P15692-4): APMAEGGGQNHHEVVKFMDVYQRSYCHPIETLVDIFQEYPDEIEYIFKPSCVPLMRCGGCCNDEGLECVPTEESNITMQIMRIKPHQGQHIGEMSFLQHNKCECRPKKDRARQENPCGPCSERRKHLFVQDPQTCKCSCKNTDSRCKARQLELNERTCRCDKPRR


Biological target: T1, VEGF165
Experiment: Biacore T100 SPR, Protein A capture, 37° C.
Assay type: binding
Parameters: made in house; host or cells: HEK293 (transient transfection)
Details: for Ka (M − 1 · s − 1) / Kd (s − 1): Table 11A, VEGF165 16 nM to […]
Method: (§1) The run was carried out at 37° C., using HBS-EP as the running buffer.
as §1, §1, §1, §1

[1] = Table 7, 1:1 Binding, VEGF165 75, 15, 3, 0.6 nM
[2] = Table 5, 1:1 model, VEGF165 64 nM to […]

Ka (M − 1 · s − 1)	Kd (s − 1)	Molecule	other results
8.68E+06	At the	DMS30014: C-terminal Fc fusion of K-044-085 dAb (Albumin Domain 3 Linker) Fc-dAb; SEQ ID NO:17 & 45 (protein, C-terminal Fc fusion of K-044-085 DAB (Albumin Domain 3 Linker) Fc-dAb nucleic acid sequence identified using molecular biology techniques.) [human IgG1 Fc not shown]EVDETYVPKEFNAETFTFHADDIQMTQSPSSLSASVGDRVTITCRASQWIGPELKWYQQKPGKAPKLLIYHGSILQSGVPSRFSGSGSGTDFTLTISSLQPEDFATYYCQQYMYYPHTFGQGTKVEIKR	–
8.74E+06	Too tight	DMS30013: C-terminal Fc fusion of K-044-085 dAb (Albumin Domain 3 Linker) Fc-dAb; SEQ ID NO:16 & 44 (Fc starts AS) (protein, C-terminal Fc fusion of K-044-085 DAB (Albumin Domain 3 Linker) Fc-dAb nucleic acid sequence identified using molecular biology techniques.) [human IgG1 Fc and a few adjoining residues not shown]EVDETYVPKEFNAETFTFHADDIQMTQSPSSLSASVGDRVTITCRASQWIGPELKWYQQKPGKAPKLLIYHGSILQSGVPSRFSGSGSGTDFTLTISSLQPEDFATYYCQQYMYYPHTFGQGTKVEIKR	–

Second part, the molecule before the results:

Molecule	Ka (M − 1 · s − 1)	Kd (s − 1)	other results
C085 G4Sx3: C-terminal Fc fusion of K-044-085 dAb ((Gly4Ser)x3); SEQ ID NO:175 (protein, C-terminal Fc fusion of K-044-085 DAB ((Gly4Ser)x3) amino acid sequence identified using molecular biology techniques.) [human IgG1 Fc not shown]GGGGSGGGGSGGGGSDIQMTQSPSSLSASVGDRVTITCRASQWIGPELKWYQQKPGKAPKLLIYHGSILQSGVPSRFSGSGSGTDFTLTISSLQPEDFATYYCQQYMYYPHTFGQGTKVEIKR	6.19E+06	1.80E−04 s − 1	–
C085 Alb DOM3: C-terminal Fc fusion of K-044-085 dAb with Albumin Domain 3 derived linker (probably truncated, Alb Dom 3-TFHAD, SEQ ID NO:174) (protein, C-terminal Fc fusion of K-044-085 DAB (Albumin Domain 3-TFHAD) amino acid sequence identified using molecular biology techniques.) [human IgG1 Fc not shown]EVDETYVPKEFNAETFDIQMTQSPSSLSASVGDRVTITCRASQWIGPELKWYQQKPGKAPKLLIYHGSILQSGVPSRFSGSGSGTDFTLTISSLQPEDFATYYCQQYMYYPHTFGQGTKVEIKR	6.17E+06	8.12E−05 s − 1	–
C085 G2Sx4: probably C-terminal Fc fusion of K-044-085 dAb ((Gly4Ser)x4); SEQ ID NO:176 (protein, C-terminal Fc fusion of K-044-085 DAB ((Gly4Ser)x4) amino acid sequence identified using molecular biology techniques.) [human IgG1 Fc not shown]GGGGSGGGGSGGGGSGGGGSDIQMTQSPSSLSASVGDRVTITCRASQWIGPELKWYQQKPGKAPKLLIYHGSILQSGVPSRFSGSGSGTDFTLTISSLQPEDFATYYCQQYMYYPHTFGQGTKVEIKR	6.11E+06	1.41E−04 s − 1	–
DMS30011: DT02-K-044-251-AS Linker-Fc-Albumin Domain 3 Linker-DT02-K-044-251 Vk-Vk dAb-Fc-dAb; SEQ ID NO:14 & 42 (protein, DT02-K-044-251-AS Linker-Fc-Albumin Domain 3 Linker-DT02-K-044-251 Vk-Vk dAb-Fc-dAb nucleic acid sequence identified using molecular biology techniques.) DIQMTQSPSSLSASVGDRVTITCRASQWIGPELKWYQQKPGKAPKLLIYHGSILQSGVPSRFSGSGSGTDFTLTISSLQPEDFATYYCQQYMYYPETFGQGTKVEIKR[human IgG1 Fc and a few adjoining residues not shown]EVDETYVPKEFNAETFTFHADDIQMTQSPSSLSASVGDRVTITCRASQWIGPELKWYQQKPGKAPKLLIYHGSILQSGVPSRFSGSGSGTDFTLTISSLQPEDFATYYCQQYMYYPETFGQGTKVEIKR	–	–	ka [1]: 1.77E+07; kd [1]: 8.07E−05
DMS30012: DT02-K-044-251-AAAS Linker-Fc-Albumin Domain 3 Linker-DT02-K-044-251 Vk-Vk dAb-Fc-dAb; SEQ ID NO:15 & 43 (protein, DT02-K-044-251-AAAS Linker-Fc-Albumin Domain 3 Linker-DT02-K-044-251 Vk-Vk d-Fc-dAb nucleic acid sequence identified using molecular biology techniques.) DIQMTQSPSSLSASVGDRVTITCRASQWIGPELKWYQQKPGKAPKLLIYHGSILQSGVPSRFSGSGSGTDFTLTISSLQPEDFATYYCQQYMYYPETFGQGTKVEIKRAA[human IgG1 Fc and a few adjoining residues not shown]EVDETYVPKEFNAETFTFHADDIQMTQSPSSLSASVGDRVTITCRASQWIGPELKWYQQKPGKAPKLLIYHGSILQSGVPSRFSGSGSGTDFTLTISSLQPEDFATYYCQQYMYYPETFGQGTKVEIKR	–	–	ka [1]: 1.61E+07; kd [1]: 7.39E−05
DMS30001: C-terminal Fc fusion of K-044-232 dAb (GS(TVAAPSGS)x3 Linker) Fc-dAb; SEQ ID NO:4 & 32 (protein, C-terminal Fc fusion of K-044-232 DAB (GS(TVAAPSGS)x3 Linker) Fc-dAb nucleic acid sequence identified using molecular biology techniques.) [human IgG1 Fc and a few adjoining residues not shown]GSTVAAPSGSTVAAPSGSTVAAPSGSDIQMTQSPSSLSASVGDRVTITCRASQWIGPELSWYQQKPGKAPKLLIYHGSILQSGVPSRFSGSGSGTDFTLTISSLQPEDFATYYCQQYMYYPETFGQGTKVEIKR	–	–	ka [2]: 1.62E+07; kd [2]: 3.63E−05
DMS30002: C-terminal Fc fusion of K-044-236 dAb (GS(TVAAPSGS)x3 Linker) Fc-dAb; SEQ ID NO:5 & 33 (protein, C-terminal Fc fusion of K-044-236 DAB (GS(TVAAPSGS)x3 Linker) Fc-dAb nucleic acid sequence identified using molecular biology techniques.) [human IgG1 Fc and a few adjoining residues not shown]GSTVAAPSGSTVAAPSGSTVAAPSGSDIQMTQSPSSLSASVGDRVTITCRASQWIGPELSWYQQKPGKAPKLLIYHGSILQSGVPSRFSGSGSGTDFTLTISSLQPEDFATYYCQQYMYYPKTFGQGTKVEIKR	–	–	ka [2]: 1.25E+07; kd [2]: 3.63E−05
